Measurements reported in PMC4336329 (PLoS ONE, 2015).
Screen size: about 310,000 compounds; about 14,000 (4.5%) showed an effect of 50% or more. The effect is printed as a negative number. Some of the results follow.

Biological target: human ether-à-go-go-related gene (hERG) potassium channel (human, UniProt Q12809)
Assay: primary screen, population patch clamp on CHO cells stably expressing hERG
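Note: peak tail current of the secondary pulse compared with the same well before compound.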

human ether-à-go-go-related gene (hERG) potassium channel, sequence (Q12809 whole entry, looked up): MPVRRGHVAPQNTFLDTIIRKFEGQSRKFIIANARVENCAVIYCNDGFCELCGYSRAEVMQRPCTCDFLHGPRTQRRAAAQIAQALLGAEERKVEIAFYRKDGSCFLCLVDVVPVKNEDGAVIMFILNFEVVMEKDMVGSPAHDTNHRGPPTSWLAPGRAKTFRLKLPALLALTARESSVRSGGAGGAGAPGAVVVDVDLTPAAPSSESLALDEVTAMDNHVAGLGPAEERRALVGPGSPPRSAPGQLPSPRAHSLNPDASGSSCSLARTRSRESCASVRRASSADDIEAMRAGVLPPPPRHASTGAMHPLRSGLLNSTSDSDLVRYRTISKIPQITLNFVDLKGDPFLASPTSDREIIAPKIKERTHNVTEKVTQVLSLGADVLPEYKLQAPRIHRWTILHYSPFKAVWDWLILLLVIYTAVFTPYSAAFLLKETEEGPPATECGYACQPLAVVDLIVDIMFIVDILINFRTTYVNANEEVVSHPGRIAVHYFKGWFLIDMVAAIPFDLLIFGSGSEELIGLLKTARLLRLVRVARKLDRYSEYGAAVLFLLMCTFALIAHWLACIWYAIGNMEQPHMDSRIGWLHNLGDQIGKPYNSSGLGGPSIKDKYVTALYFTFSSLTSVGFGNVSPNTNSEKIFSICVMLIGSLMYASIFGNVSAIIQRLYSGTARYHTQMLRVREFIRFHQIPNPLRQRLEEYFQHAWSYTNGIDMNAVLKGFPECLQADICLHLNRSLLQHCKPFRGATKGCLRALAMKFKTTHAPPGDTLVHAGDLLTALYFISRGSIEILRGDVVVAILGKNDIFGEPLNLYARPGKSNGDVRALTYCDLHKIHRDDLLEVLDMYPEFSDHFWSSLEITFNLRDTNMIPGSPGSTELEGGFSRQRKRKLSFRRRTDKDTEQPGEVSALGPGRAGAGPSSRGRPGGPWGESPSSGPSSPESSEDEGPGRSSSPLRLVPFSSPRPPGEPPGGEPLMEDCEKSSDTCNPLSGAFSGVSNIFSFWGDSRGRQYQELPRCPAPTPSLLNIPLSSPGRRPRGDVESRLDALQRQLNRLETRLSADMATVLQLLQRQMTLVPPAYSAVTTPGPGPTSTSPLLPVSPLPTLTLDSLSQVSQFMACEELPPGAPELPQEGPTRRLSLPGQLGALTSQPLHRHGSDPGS

| Compound | hERG current change (%, negative = inhibition) at 10uM [%] |
| --- | --- |
| COc1ccc(CCNCc2ccc(OCc3ccccc3)cc2)cc1 | -41.6 |
| Cc1noc(C)c1C(=O)Nc1ccccc1-c1ccccc1 | 13.3 |
| CC(C)(C)c1nc(C(C)(C)C)c(Br)c(=O)[nH]1 | 2.34 |
| O=C(COC(=O)CCCc1nc2ccccc2s1)Nc1ncc(Cl)cc1Cl | 1.26 |
| Nn1cnc2scc(-c3cccs3)c2c1=O | 16.3 |
| Cn1c(N)c(C(=O)CN2CCc3ccccc3C2)c(=O)n(C)c1=O | -36.3 |
| COc1ccc(-c2nnc(Nc3ccc(CC(N)=O)cc3)c3ccccc23)cc1 | -14.1 |
| COCC(C)n1c(-c2ccc3c(c2)NC(=O)CO3)csc1=Nc1ccc(OC(F)F)cc1 (stereo not shown) | 2.76 |
| O=C(CSc1nc(=O)n2ccccc2n1)N1CCC(Cc2ccccc2)CC1 | -58.1 |
| Cc1ccc2cccc(OC(=O)c3ccc4c(c3)OCCO4)c2n1 | -5.66 |
| CNc1nc(-c2c[nH]c3ccccc23)cs1 | -2.45 |
| Cc1cc2nc(-c3ccc(SCc4ccccc4C#N)nc3)[nH]c2cc1C | 0.0557 |
| Cc1cc(C)n(-c2cccc(F)n2)n1 | 31.7 |
| CC(C)CCNC(=O)c1ccc(Cl)c(NC(=O)Cc2ccccc2)c1 | -9.16 |
| CCCCNC(=S)N(C)/N=C/c1c(F)c(F)c(F)c(F)c1F | -7.73 |
| CC(C)(C)c1ccc(OCC(O)CS(=O)(=O)c2ccccn2)cc1 (stereo not shown) | -4.33 |
| CCNc1c(NS(=O)(=O)c2ccc(C3CCCCC3)cc2)c(=O)oc2ccccc12 | 21.5 |
| C[C@H]1[C@@H](OC(=O)CCC(=O)O)O[C@@H]2O[C@@]3(C)CC[C@H]4[C@H](C)CC[C@@H]1[C@@]24OO3 | 1.58 |
| CCC(=O)Oc1ccc(C2NC(=O)c3ccccc3O2)cc1OC (stereo not shown) | 21 |
| COc1ccc2[nH]c(=O)c(CN(CCc3ccccc3)C(C)=O)cc2c1 | -21.7 |
| CSC1=NC(=O)/C(=C\c2cccc3ccccc23)S1 | 17.8 |
| O=C(Nc1ccccn1)c1cc2cc([N+](=O)[O-])ccc2s1 | 27.1 |
| Cc1ccc(-n2c(O)c(C=Nc3ccc(S(N)(=O)=O)cc3)c(=O)[nH]c2=O)cc1 | 14.9 |
| O=C(NCCCc1ccccc1)C1CCN(S(=O)(=O)c2ccc(F)cc2)CC1 | -60.7 |
| CCn1c(C(=O)OC)cc2c1ccn2-c1ccc(F)cc1 | 20.1 |
